# According to PubChem BioAssay AID1347073 (National Center for Advancing Translational Sciences (NCATS), 2019):
# In all, about 45,000 compounds went through this assay and about 200 (0.44%) were called active. Roughly 7% stayed inconclusive and do not appear here. Calls follow the shape of the dose curve; as a rule, active = well fitted activation curve with a large enough effect; inconclusive = small, poorly fitted or top-dose-only effect; inactive = no such curve, though single readings can be large or run the other way. Some of the results follow.
# Assay: qHTS of TDP-43 Inhibitors: NCGC Sytravon Library Screen; also: 0% is about no effect; nearly all actives have a fitted effect of over 55% in size
# Settings: yeast TDP-43 toxicity rescue, BacTiter-Glo growth, 24 h; series mostly up to 46.1 µM; growth rescue (activation): at the top concentration
# In short: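 TDP-43-expressing yeast, pregrown in raffinose, seeded at OD600 0.02 in galactose medium with compound for 24 hr at 30 deg C. Growth read by BacTiter-Glo luminescence, so rescue of toxicity appears as activation.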
row,Compound,growth rescue (activation)
1,COC(=O)c1[nH]c2cc(C)ccc2c1NC(=O)CN1CCc2cc(OC)c(OC)cc2C1,inactive: -14.9%
2,O=C1CCCN1CCC(=O)N1CCCC(Nc2ccc(F)c(F)c2)C1 (stereo not drawn),inactive: 13.9%
3,COc1ccc(CC(=O)O/N=C(\N)c2ccccc2)cc1OC,inactive: 27.1%
4,Cc1ccc(-c2csc(C3=C(O)CN(NC(=O)c4ccco4)C3=N)n2)cc1,inactive: 1.95%
5,COc1ccc(C(=O)Nc2ccccc2C)cc1S(=O)(=O)N1CCOCC1,inactive: -8.82%
6,O=C(COc1cccnc1[N+](=O)[O-])c1ccc(Cl)s1,inactive: 18%
7,Cc1cc(C)c2c(N)c(C(=O)c3ccc(Cl)cc3Cl)sc2n1,inactive: 32.7%
8,CS(=O)(=O)N1CCC(C(=O)NCc2ccc(F)cc2)CC1,inactive: -0.312%
9,O=C(NCC1COc2ccccc2O1)c1cccs1 (stereo not drawn),inactive: 9.98%
10,Cc1c(NC(=O)c2cc(-c3ccc(F)cc3)nc3ccccc23)c(=O)n(-c2ccccc2)n1C,inactive: 15.5%
11,COc1ccccc1OCC(=O)NCc1nc(-c2ccccc2)no1,inactive: 21%
12,C=CCSc1nsc(NC(=O)Nc2ccc(F)cc2)n1,inactive: -70.2%
13,CCN(C(=O)CSc1n[nH]c(-c2cc(Cl)ccc2OC)n1)C1CCS(=O)(=O)C1 (stereo not drawn),inactive: 26.9%
14,CC(C)(C)SCCNC(=O)/C=C/c1ccc(F)cc1,inactive: 27.8%
15,CCc1ccc2[nH]c3nc(SCc4nnc(-c5ccccc5)o4)nnc3c2c1,inactive: 30%
16,Cc1cc([N+](=O)[O-])nn1CCCC(=O)Nc1c(C)n(C)n(-c2ccccc2)c1=O,inactive: 4.65%
17,O=C(O)c1ccc(CSc2nnnn2-c2ccc(F)cc2)cc1,inactive: 9.85%
18,Cc1ccc(NS(=O)(=O)c2ccc3c(c2)C(=O)c2ccccc2C3=O)c(C)c1,inactive: -5.36%
19,CC(C)(C)c1ccc(C(=O)NCC(=O)NCC(C)(C)N2CCOCC2)cc1,inactive: -5.23%
20,CN(C(=O)c1ccc(S(=O)(=O)N2CCCC2)cc1)C1CCCCC1,inactive: -1.55%
21,CC1SC2(NC1=O)C1CC3CC(C1)CC2C3 (stereo not drawn),inactive: 28.7%
22,COc1cccc(-c2n[nH]c3c2CCC3)c1,inactive: 17.8%

row,Compound,growth rescue (activation)
1,COc1cccc(C(C(=O)NC(C)(C)C)N(CC(C)C)C(=O)CCC(=O)Nc2cc(C)on2)c1OC (stereo not drawn),inactive: -1.83%
2,C/C(=N/NC(=O)COc1cc(C)ccc1C(C)C)C(=O)O,inactive: 16.7%
3,C=CCn1c(-c2cccc(OC)c2)n[nH]c1=S,inactive: 11.6%
4,N/C(=N\OC(=O)CCCOc1ccccc1)c1cccc([N+](=O)[O-])c1,inactive: 9.74%
5,COc1ccc(-n2nc(C(=O)Nc3nc4ccc(OC)cc4s3)c3ccccc3c2=O)cc1,inactive: 1%
6,CCOC(=O)c1c(NC(=O)C[n+]2ccc(Cc3ccccc3)cc2)sc(C)c1C,inactive: -7.29%
7,COC(=O)C1=C(C)N(CCc2c[nH]c3ccccc23)C(=O)/C1=C\N(C)C,inactive: -20.3%
8,Cc1cc(Cl)ccc1OCC(=O)NC(=S)Nc1ccccc1N1CCOCC1,inactive: -8.81%
9,Cc1ccc(C(=O)Nc2ccc(N3CCCC3)cc2)c(C)c1,inactive: 3.39%
10,COc1ccc(S(=O)(=O)NC(=O)C2(C)CCN2C(=O)Cc2ccccc2)cc1OC (stereo not drawn),inactive: -8.41%
11,COc1cccc(/C=C2\Sc3ccc(C(=O)NCc4cccnc4)cc3N(C)C2=O)c1,inactive: -0.153%
12,COC(=O)C(Cc1c[nH]c2ccccc12)NC(=O)C1CC1 (stereo not drawn),inactive: 1.89%
13,Cc1nn(C)c(C)c1/C=C(/C(=O)C(C)(C)C)n1cncn1,inactive: -3.45%
14,CC(C)(C)c1ccc(-c2n[nH]c(=S)n2/N=C/c2ccncc2)cc1,inactive: 22%
15,CCN(CC(=O)NCc1ccc(F)cc1)CC(=O)NC1CCCC1,inactive: -6.18%
16,NC(=O)c1ccccc1NC(=O)CC12CC3CC(CC(Br)(C3)C1)C2,inactive: 1.49%
17,CN(C(=O)CSc1nc2ccc(Br)cc2c(=O)n1Cc1ccco1)C1CCS(=O)(=O)C1 (stereo not drawn),inactive: 7.42%
18,N#CCCN(C1CCCCC1)S(=O)(=O)c1cccc2nsnc12,inactive: -7.35%
19,Cn1c(=O)c(=O)n(C)c2cc(S(=O)(=O)N3CCCC3C(=O)NCc3cccs3)ccc21 (stereo not drawn),inactive: 4.97%
20,Cc1cc(C)n2nc(SCC(=O)NC(=O)c3ccccc3)nc2n1,inactive: 12.9%
21,O=c1[nH]c(C(Cl)(Cl)Cl)nc2ccc3ccccc3c12,inactive: -3.92%
22,CCOC(=O)N1CCN(C(=O)c2ccc(OC)cc2)CC1,inactive: -4.57%

row,Compound,growth rescue (activation)
1,COc1ccc(N(C(=O)C(C)C)S(=O)(=O)c2ccc3c(c2)n(C)c(=O)n3C)cc1,inactive: 26.5%
2,COC(=O)c1ccccc1NC1=C/C(=N\S(=O)(=O)c2ccc(C(=O)O)cc2)c2ccccc2C1=O,inactive: 4.93%
3,CCCC1=C(C(=O)OCC)C(c2ccc(OC)c(C)c2OC)C(C#N)=C(N)O1 (stereo not drawn),inactive: 2.08%
4,O=C(CN(C(=O)CNC(=O)c1ccco1)c1ccc2c(c1)OCCO2)NC1CCCCC1,inactive: 2.37%
5,O=C(COC(=O)c1cccc(OC(F)F)c1)NC1CCCC1,inactive: 11%
6,COc1ccc(NC(=O)COC(=O)c2ccc3c(c2)OCO3)c(OC)c1,inactive: -2.88%
7,COc1ccc(C2CC(c3ccc4ccccc4c3OC(C)=O)=NN2C(C)=O)cc1 (stereo not drawn),inactive: 2.15%
8,COc1cc(C(=O)NCCOc2cc(C)ccc2C(C)C)cc(OC)c1OC,inactive: 28.8%
9,O=C(CSc1nnc2ccccn12)NNC(=O)c1ccc(Br)cc1,inactive: -8.21%
10,O=C(O)C1(c2ccccc2)CCN(S(=O)(=O)c2cccc(Cl)c2)CC1,inactive: 7.99%
11,Cc1ccc(S(=O)(=O)N2CCCNCC2)cc1,inactive: 13.6%
12,COc1ccc(CCN(C)CC(=O)Nc2ccc(F)c(Cl)c2)cc1OC,inactive: 2.5%
13,C=CCc1cc(/C=C2/NC(=O)NC2=O)cc(OCC)c1O,inactive: 12.7%
14,O=C(Cc1c(F)cccc1Cl)NC1=NCCS1,inactive: -12.1%
15,Cc1cc(Oc2ccccc2F)nc(NCc2ccccc2)n1,inactive: 14.6%
16,Cc1ccc(NC(=O)c2ncn(-c3ccccc3)n2)c(Cl)c1,inactive: 17.6%
17,CC(=O)c1cccc(NC(=O)CCC(=O)c2ccc(F)cc2)c1,inactive: -16.2%
18,CCOc1ccc(CCNC(=O)C2=C(C)C(=O)OC23CCC(C)CC3)cc1OCC (stereo not drawn),inactive: 18.1%
19,CCC(CO)Nc1nc(CN2CCCCC2)nc2scc(-c3ccccc3)c12 (stereo not drawn),inactive: 13.9%
20,CN(C)C(=S)Nc1ccc([N+](=O)[O-])cc1,inactive: 18.5%
21,O=C1NC(=S)N/C1=C/c1cccn1-c1ccc([N+](=O)[O-])cc1,inactive: -7.92%
22,CCN(CC)c1ccc(NC(=O)CSc2nc3ccccc3c(=O)n2-c2cc(S(=O)(=O)N(C)C)ccc2C)cc1,inactive: -30.1%

row,Compound,growth rescue (activation)
1,Cc1cccc(COC(=O)C(Cc2ccccc2)NC(N)=O)c1 (stereo not drawn),inactive: 0.0955%
2,COc1ccc(-c2c(=O)n(OCc3ccccc3[N+](=O)[O-])c3ccccc3[n+]2[O-])c(OC)c1,inactive: -1.61%
3,O=[N+]([O-])c1cccc(S(=O)(=O)NCc2ccncc2)c1,inactive: 0.488%
4,Cc1cc(N2CCN(C)CC2)nc(N2CCOCC2)n1,inactive: 4.64%
5,Cc1cccc(C)c1NS(=O)(=O)c1ccc(OCCNS(C)(=O)=O)cc1,inactive: 8.63%
6,NC(=O)C1CCN(C(=O)CSc2nc3ccccc3o2)CC1,inactive: 28.4%
7,CC(=O)c1ccc(-c2nnc(CCC(=O)N(C)Cc3c(C)nc4ccccn34)o2)s1,inactive: 7.55%
8,CC(=O)Oc1ccc2c3c(c(=O)oc2c1C)CCCC3,inactive: 8.52%
9,O=C(COc1ccc(F)cc1)NCC1(N2CCCCC2)CCCCC1,inactive: -11.4%
10,N#Cc1cccc(NC(=O)CSc2cccc[n+]2[O-])c1,inactive: 12.9%
11,O=C(COC(=O)c1c(F)cccc1F)Nc1ccc2[nH]c(=O)[nH]c2c1,inactive: -1.59%
12,CCN1CCN(CCCNC(=O)CNC(=O)c2nn(-c3ccc(OC)cc3)c(=O)c3ccccc23)CC1,inactive: -21%
13,Cc1cccc(-n2c(N)cc(=O)nc2SCC(=O)Nc2ccccc2)c1,inactive: 3.28%
14,Cc1ccc(OCC(O)CN2CC3(C)CC2CC(C)(C)C3)cc1 (stereo not drawn),inactive: -5.36%
15,Cc1ccc(Nc2ncc(C(=O)NCCCN3CCN(C)CC3)c3ccccc23)cc1Cl,inactive: 0.402%
16,CSc1ncccc1C(=O)Nc1ncc(C)s1,inactive: 3.18%
17,CC(=O)N1CCN(CCN=CC2=C(O)CC(c3ccc(Cl)cc3)CC2=O)CC1 (stereo not drawn),inactive: -17.6%
18,O=C(CCN1CCOCC1)NNC(=O)c1ccc(Cl)c([N+](=O)[O-])c1,inactive: 8.79%
19,COc1cccc(C(=O)Nc2ccc(C(F)(F)F)n(C)c2=O)c1,inactive: 4.87%
20,Cc1cccc(-n2c(=O)c3c(C)c(C)sc3n(CC(N)=O)c2=O)c1,inactive: -1.31%
21,COc1ccc(-c2cnc(N)nc2-c2ccc(OC)cc2O)cc1,inactive: 36.8%
22,CCOc1cc(C(=O)NCc2ccc(C)cc2)ccc1OCC(=O)N1CCOCC1,inactive: 5.4%

row,Compound,growth rescue (activation)
1,CCOc1ccccc1-c1nc(C(N)=O)c2[nH]c(=O)n(-c3ccccc3)c2n1,inactive: -30.1%
2,Cc1ccc(C(=O)O)cc1NC(=O)Nc1ccc2c(c1)OCO2,inactive: 4.97%
3,Cc1ccccc1NC(=O)Cc1nnc(SCC(=O)NC2=NCCS2)n1C,inactive: 5.37%
4,COc1cc(C2c3c(oc4ccccc4c3=O)C(=O)N2c2nccs2)ccc1O (stereo not drawn),inactive: -2.98%
5,Nc1nc(N2CCOCC2)n[nH]1,inactive: -2.51%
6,COc1ccc(CC(=O)NC(c2ccccc2)c2ccc(C)cc2)c(OC)c1 (stereo not drawn),inactive: 10.5%
7,COc1cccc(-c2cc(C(=O)N3CCOCC3)no2)c1,inactive: 12.5%
8,O=C(CCNC(=O)c1ccc([N+](=O)[O-])cc1)NCCc1ccc(Cl)cc1,inactive: 26.3%
9,Cc1cccc(NC(=S)NCCO)c1C,inactive: -12%
10,O=C(CN1c2cccc3cccc(c23)S1(=O)=O)Nc1ccc(F)c(F)c1F,inactive: -4.84%
11,COc1ccc(C(=O)C(C)OC(=O)CN2C(=O)c3ccccc3C2=O)cc1 (stereo not drawn),inactive: 11%
12,COc1cc(/C=C2/NC(=O)N(Cc3ccccc3F)C2=O)cc(OC)c1OC,inactive: 5.56%
13,CN(c1ccccc1)S(=O)(=O)c1ccc(C(=O)NCCc2ccccc2)cc1,inactive: 21.6%
14,Cc1cnc(C)c(Nc2nc(C(N)Cc3ccc(C(F)(F)F)cc3)cs2)n1 (stereo not drawn),inactive: 9.08%
15,CC(=O)c1cccc(NC(=O)N2CCCC(C(=O)c3cc(F)ccc3F)C2)c1 (stereo not drawn),inactive: -0.616%
16,O=C(COC(=O)c1n[nH]c2ccccc12)NC1CCCCC1,inactive: 18%
17,CC1(C)Cc2c(C#N)c(NCc3ccco3)nc(-c3ccco3)c2CO1,inactive: 10.3%
18,COC(=O)c1ccccc1NCc1cc(=O)oc2cc(O)c(O)cc12,inactive: 5.51%
19,O=C(N/N=C/c1cccc2ccccc12)c1n[nH]c2c1CCCC2,inactive: 4.34%
20,CNC(=O)CS(=O)CC(=O)Nc1cc(OC(C)C)c(Cl)cc1Cl (stereo not drawn),inactive: -3.37%
